Laboratory results reported in publication PMC12136788.
This is one part of the list.

T1: UNK ZnF1-3 (human, UniProt Q9C0B0 31-174)
T1 sequence: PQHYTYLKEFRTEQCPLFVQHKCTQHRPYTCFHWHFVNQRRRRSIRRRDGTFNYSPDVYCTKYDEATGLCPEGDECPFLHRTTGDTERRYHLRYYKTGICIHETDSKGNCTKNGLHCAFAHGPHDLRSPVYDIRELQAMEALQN

B1: chr8:104433209:104433210:+_ENSG00000164934_ENST00000297579|hu_mus|FALSE|FALSE (ssRNA)
RNA: GGGAGUUCUACAGUCCGACGAUCAAAACCUUCAUGUGCUUGUAUUGUUCGGAUACAUUUUCGUUUAGUCAGAUUCCAAAUUUUAACCUCUCCAUCACAUGCCCCAGAAAGGACAGAAGCCAGGCUCUUUGGAUGCUUUGCCAGCAACAGAGGAUUGAGCAUCA
B2: 171544185_171546610_7175_CDS_ENSG00000117523_ENST00000367742|human|control|control (ssRNA)
RNA: GGGAGUUCUACAGUCCGACGAUCUUUUGUGCUCAAAGAAGAGGUAGUGUAUGUACCAGCUCCUGAUAGUGAUGCUGUAGGAGUGACUGAAGCAACAGGAAUCUGGGGCAUGGAUGCACUUGAGAACGAAUUGUAAUUAGCAGUCAACAGAGGAUUGAGCAUCA
B3: chr3:119242560:119242561:+_ENSG00000113845_ENST00000264244|hu_hu|motif|central (ssRNA)
RNA: GGGAGUUCUACAGUCCGACGAUCUCAGCUCUCCAGUGAGUUUCAAGUUCAGAGCACUUUCAGUCCUUGUCUUGUUUAUCGGUUACUGAAGGGUUUCUAGGAAGGUUUAGCAGUGCUUCAAUUUUCUUAGCAUCAUUCUCAGGUCAACAGAGGAUUGAGCAUCA
B4: chrX:55033037:55033038:+_ENSG00000169188_ENST00000374987|hu_hu|FALSE|FALSE (ssRNA)
RNA: GGGAGUUCUACAGUCCGACGAUCAGUGACUGCUGACCAGCAGGUGAAGGCCCCCUCCUGCUUUGGUUGGAAGCAGCGGUAGCUAUCGAUGAAGGGCCCUACAUGAGAGGCAGACUGGCACCCCAAGUUACUGAGCAAGCUGUCCAACAGAGGAUUGAGCAUCA
B5: 109746028_109746148_1226_CDS_ENSMUSG00000025529_ENSMUST00000071814|mouse|control|control (ssRNA)
RNA: GGGAGUUCUACAGUCCGACGAUCAGUUGUGAAAUCACAAUCUGUACACUGGUACUUCUUUCUCAUCAAAUGAUCGGGAUGAUUCUUCAUGUGUCUUUUUAAGAAUCCCCUGGAUUUAAACUUUUUUGUGCAAAUAUGGCAAGGCAACAGAGGAUUGAGCAUCA
B6: 150068528_150068648_336_CDS_ENSG00000214022_ENST00000425389|human|control|control (ssRNA)
RNA: GGGAGUUCUACAGUCCGACGAUCGACCUGGCGGUGCAGUGCUAAGAAGGGGGCAUGGCGAAAGCGACGGCCACACUCAGGGCAGGGCAAGGGCAGCCGGGCCUGGCACCGGCGGGUGUGAAGCCACAGAGCCACCCAGCCAGGCAACAGAGGAUUGAGCAUCA
B7: chr1:163117127:163117128:-_ENSG00000143248_ENST00000313961|hu_mus|hu_hu_hu_mus_False|1_78 (ssRNA)
RNA: GGGAGUUCUACAGUCCGACGAUCUGCUACAAAGGAUGUAACUCAACUCACAGGGCAUGAUUUCAUAGCCUGACCAGAUGACUACUUGAUUAGCUCCUUAUAAAAUUCAGAGCGCACAAAGCGGGGCAGAGAAUCCUUUUCCAUCAACAGAGGAUUGAGCAUCA
B8: chr6:38652254:38652255:-_ENSG00000124767_ENST00000373365|hu_hu|hu_hu_hu_mus_False|8_78 (ssRNA)
RNA: GGGAGUUCUACAGUCCGACGAUCCGAGAACUUCAUAGCAGGGAAGUCAAGCUUCUGGAUUAGCGUCAGUCCAAGAACCCUCGUAUAAAAAUCCAGGGACUUCUUAGGAUCCUUAAUUCUUAGCAUCGUCUGCUGCAGUAGAAACAACAGAGGAUUGAGCAUCA
B9: chr2:104430793:104430794:+_ENSMUSG00000027176_ENSMUST00000028599|mus_hu|motif|central (ssRNA)
RNA: GGGAGUUCUACAGUCCGACGAUCCGUCUCCUGACAUGGCCUCAGCUGAUUACAACGUGCGCACUGACCGUCGAUGGGAAGCGGGAAAAGAAAAAUUAAACUAAAAACCACCCCCAAAUCAGUAAAGUUACCCCCUGCCCAGCUCAACAGAGGAUUGAGCAUCA
B10: 117521585_117542866_2093_CDS_ENSMUSG00000038371_ENSMUST00000164759|mouse|control|control (ssRNA)
RNA: GGGAGUUCUACAGUCCGACGAUCUGUCCAAAUGGGGUGGUCCUGUACACAGGUGUAGGCAAACUGGCUGACUCCAGGGGCAAGUUUCCUAUAGAAAGCACUGGUCAGGGGGAGUAAUGCUGCAGCGAUGUUAUAUUCUUCUAACAACAGAGGAUUGAGCAUCA
B11: chr14:76906223:76906224:+_ENSMUSG00000022010_ENSMUST00000022587|mus_mus|motif|central (ssRNA)
RNA: GGGAGUUCUACAGUCCGACGAUCCACUUCCUCCCUCACCGCAUACAUCAAAUGGCUUUUCACCAGAUCCAUAGCUUGCUCGGUUUUGUUGUCGAUAGCUACCACACUUGCACCAGAGCUAUUGUCAAGUCUCACGGAAGCGUUCAACAGAGGAUUGAGCAUCA
B12: chr2:99204607:99204608:+_ENSG00000040933_ENST00000545415|hu_hu|motif|central (ssRNA)
RNA: GGGAGUUCUACAGUCCGACGAUCGGUAGUGUAGAUAGGAUAAUUCACUAGAACCCGUUAUUCUCACUGCAUGAGAUAGUGCGGGCUUCUUUCCCCAAAUAACAUUUAUUGGUAUGCCUAGGAUCCAAUUAUUUAAUUUAUUAUCAACAGAGGAUUGAGCAUCA
B13: 80668181_80669720_2026_CDS_ENSMUSG00000035051_ENSMUST00000038166|mouse|control|control (ssRNA)
RNA: GGGAGUUCUACAGUCCGACGAUCAGAGAUCCGUCGGGGUUGGGUACAGAUGAUGUUGGCCACCCUCUCGGGUGGCCCAUUCAGAGAAUUAUCCAGGAUAAACUGUGGAAUCUGUGUGGUUUUCCCACAUCCAGUCAUACCACUCAACAGAGGAUUGAGCAUCA
B14: chr5:145858064:145858065:+_ENSG00000113649_ENST00000394421|hu_mus|FALSE|FALSE (ssRNA)
RNA: GGGAGUUCUACAGUCCGACGAUCCCACAUAGAAAGGCGGGUGGUGGGAUUGUAAAAGAAGACCCUCUCAUCACCAGUCCAAACAACACACCAUGGAGUACCAGGAAUAGGAGUAGUAGCUACUGGCUUUGCCUUCUGGGCAGCCAACAGAGGAUUGAGCAUCA
B15: chr17:58740566:58740567:+_ENSG00000170836_ENST00000305921|hu_mus|FALSE|FALSE (ssRNA)
RNA: GGGAGUUCUACAGUCCGACGAUCUUUUUGGUCCAUGAUAGUAUUUGUUGAAUUGGUUGGAAUGAGGCCAACUGACAGAGUAUUAUUCAAAGAAUCAUGAAUCCUUAAAGUCAGGGCUUUGGGGCAAUUUUCUUCAAGUGUCUCCAACAGAGGAUUGAGCAUCA
B16: chr3:31621302:31621303:+_ENSG00000163527_ENST00000295770|hu_mus|motif|central (ssRNA)
RNA: GGGAGUUCUACAGUCCGACGAUCUAAAAUCCAAUGAAUAAGGCCAGCUGUUAUCAUCAACCCUGGGUAAACGGUGCCACCCACGGUUCUUCCCAGUGGGUACCAUGCUCUUUCAUCAAACCAAUUUAGAAACUCAUAGAAUCCCAACAGAGGAUUGAGCAUCA
B17: chr10:24632779:24632780:+_ENSMUSG00000019984_ENSMUST00000092646|mus_hu|FALSE|FALSE (ssRNA)
RNA: GGGAGUUCUACAGUCCGACGAUCCAUAGCUCUAAUAAGUUGUUAUGAAUAUGAACAACAUGUAUCUUACUUGAUCUCUUAGAGACAAAAAUAUAGAUAGGGAGAUGGGAGUUAUAAGGUGUCAACAGAUUCAUCAUUUGAAUCCAACAGAGGAUUGAGCAUCA
B18: chr14:66974463:66974464:+_ENSMUSG00000022044_ENSMUST00000074523|mus_hu|mus_mus_mus_hu_False|18_88 (ssRNA)
RNA: GGGAGUUCUACAGUCCGACGAUCUUGUAGGACGACUUAUUCAGGGGAUCAGACAAGAAGCAGGAGCAGAACAAGGACACCAGCGGGAGCUCCUUCAUCUUCUCUUUGUAGGCAGCAAGAGUCAUGUUUCUGGGAUCUGGUGGCCAACAGAGGAUUGAGCAUCA
B19: chr2:71279510:71279511:+_ENSMUSG00000027018_ENSMUST00000028408|mus_mus|motif|central (ssRNA)
RNA: GGGAGUUCUACAGUCCGACGAUCUCAUAAACUCUAGACAGUAUUUUAAAAUAUACAAUCUCUCAAAAGGAAAUAUUCCACGGAGGAGAACAUAGAUAACUUUAGGGUCAUCAGAGGUUCACAGCACGAUGCACAGAAAUCUGCCAACAGAGGAUUGAGCAUCA
B20: chr4:95690885:95690886:+_ENSMUSG00000028572_ENSMUST00000156910|mus_mus|mus_mus_mus_hu_False|1_28 (ssRNA)
RNA: GGGAGUUCUACAGUCCGACGAUCUUUAGAAAAUGUUAAAUACCAUGCUAAAAUAUUUUCAAAGGCUUAUUUUAUUUUACCAGAAGUCACAGGCAAGCAGACACUACAAACAUACAAGAAAAUGAAACUCAACAAUAAAAUGUACAACAGAGGAUUGAGCAUCA
B21: chr2:113286301:113286302:+_ENSG00000114999_ENST00000233336|hu_mus|FALSE|FALSE (ssRNA)
RNA: GGGAGUUCUACAGUCCGACGAUCAGCCGGCUGCUGCGGCACCUGCUCCGUGUCCGGGGGUGGGAAGACACUGGAUAUGGCUAUGUCCACGAUGCCCUGGCACAGUUCUGCAUAGAGUUUCUGGGCACACGCUGGGGCGCCGUUCAACAGAGGAUUGAGCAUCA
B22: chr18:43482012:43482013:-_ENSMUSG00000024501_ENSMUST00000121805|mus_mus|motif|central (ssRNA)
RNA: GGGAGUUCUACAGUCCGACGAUCGGAUUGAUCCCCAAAUUUGAAUUGUAACUCAAAACUUCAUUCCAUUCUUUUUCUUCGGAAGUCUCCUUUAAAAUGAAAGCACCAUGAGAGCUUUAAAGAAGCAAGAUUCCUCUUCUGAGGCAACAGAGGAUUGAGCAUCA

Biological target: T1, UNK ZnF1-3
Experiment: nsRBNS (natural sequence RNA bind-n-seq); RBNS binding buffer (assumed for nsRBNS): 25 mM Tris pH 7.5, 150 mM KCl, 3 mM MgCl2, 0.01% Triton X-100, 500 ug/ml BSA, 20 U/ml SUPERase-In, 4 C; UNK is unkempt and MSI1 is Musashi-1; names of the RNAs are library labels; protein concentration not given here; high values mean tight binding

Binder | binding signal [enrichment R]
B1 | 0.907
B2 | 1.12
B3 | 0.614
B4 | 1.22
B5 | 0.437
B6 | 1.08
B7 | 1.12
B8 | 1.21
B9 | 2.21
B10 | 1.17
B11 | 1.02
B12 | 0.961
B13 | 0.558
B14 | 1.21
B15 | 0.832
B16 | 0.786
B17 | 0.782
B18 | 1.83
B19 | 0.866
B20 | 1.78
B21 | 0.587
B22 | 0.98
